Measured values reported in article PMC4336329 (PLoS ONE, 2015).
The whole screen tested about 310,000 compounds, of which about 14,000 (4.5%) showed an effect of 50% or more. Effects have a minus sign here. The list shows a part of the results.

These compounds were tested against human ether-à-go-go-related gene (hERG) potassium channel (human, UniProt Q12809) (assay: primary screen, population patch clamp on CHO cells stably expressing hERG).
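Also: peak tail current of the secondary pulse compared with the same well before compound.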

Sequence of human ether-à-go-go-related gene (hERG) potassium channel (Q12809 whole entry, looked up): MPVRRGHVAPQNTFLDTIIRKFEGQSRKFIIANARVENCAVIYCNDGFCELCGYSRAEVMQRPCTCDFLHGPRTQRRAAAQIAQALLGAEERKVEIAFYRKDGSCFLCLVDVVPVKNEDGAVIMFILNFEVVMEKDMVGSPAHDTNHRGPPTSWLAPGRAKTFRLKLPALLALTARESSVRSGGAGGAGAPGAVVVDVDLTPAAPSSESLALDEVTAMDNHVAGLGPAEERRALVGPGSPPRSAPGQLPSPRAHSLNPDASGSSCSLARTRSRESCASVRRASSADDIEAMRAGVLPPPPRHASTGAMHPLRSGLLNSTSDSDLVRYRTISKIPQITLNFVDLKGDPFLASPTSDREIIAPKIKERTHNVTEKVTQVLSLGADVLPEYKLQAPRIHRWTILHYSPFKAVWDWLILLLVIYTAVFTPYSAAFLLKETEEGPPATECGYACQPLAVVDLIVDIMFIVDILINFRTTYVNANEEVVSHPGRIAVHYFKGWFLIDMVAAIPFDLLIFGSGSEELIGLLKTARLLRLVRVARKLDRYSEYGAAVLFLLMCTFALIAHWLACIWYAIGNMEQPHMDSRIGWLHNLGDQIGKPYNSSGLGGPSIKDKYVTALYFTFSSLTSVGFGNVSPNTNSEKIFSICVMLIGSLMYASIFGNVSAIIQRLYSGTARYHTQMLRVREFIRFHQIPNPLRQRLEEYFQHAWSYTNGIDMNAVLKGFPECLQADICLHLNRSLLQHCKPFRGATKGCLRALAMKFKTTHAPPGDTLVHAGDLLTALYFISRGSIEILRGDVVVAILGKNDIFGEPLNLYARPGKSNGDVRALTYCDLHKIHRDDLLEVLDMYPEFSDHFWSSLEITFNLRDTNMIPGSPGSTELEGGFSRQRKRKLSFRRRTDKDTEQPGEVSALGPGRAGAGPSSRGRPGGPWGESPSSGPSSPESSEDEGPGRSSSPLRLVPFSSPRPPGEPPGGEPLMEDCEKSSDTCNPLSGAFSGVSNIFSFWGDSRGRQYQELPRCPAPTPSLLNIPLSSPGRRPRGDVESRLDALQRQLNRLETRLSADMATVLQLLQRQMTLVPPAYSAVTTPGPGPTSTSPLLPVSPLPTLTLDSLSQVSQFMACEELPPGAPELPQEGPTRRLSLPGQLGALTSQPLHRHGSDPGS

SMILES	hERG current change (%, negative = inhibition) at 10uM
COc1ccc(-n2c(SC)nc(O)cc2=O)cc1	-3.08%
O=C(c1cccc(Cl)c1)N(Cc1ccco1)C1CCS(=O)(=O)C1 (stereo not drawn)	3.46%
COc1ccc(OCCC(=O)OCC(=O)NC(=O)NC(C)(C)C)cc1	-6.8%
O=C(CCCN=C1NS(=O)(=O)c2ccccc21)OCc1ccc(F)cc1	-14.2%
CN(CC(=O)Nc1ccc(Cl)c(C(F)(F)F)c1)C(=O)Cc1ccsc1	-18.9%
CC(C)(C)c1n[nH]c(=S)n(/N=C/c2cccs2)c1=O	7.18%
O=C(COC(=O)Cc1ccccc1F)Nc1ccc2c(c1)OCCO2	20.5%
N#C/C(=C\c1ccc(Sc2nc3ccccc3[nH]2)o1)c1ccccc1	-2.62%
Cc1c(Cl)cnc(NC(=O)CSc2n[nH]c(N)n2)c1Cl	10.9%
CN1CCc2nc3ccc(Cl)cc3c(-c3ccccc3Cl)c2C1.Cl	-65.7%
COC(=O)c1cnc(SCc2ccc([N+](=O)[O-])cc2)n1C	-32%
CCOC(=O)c1nnn(-c2nonc2N)c1-c1cccs1	-12.8%
O=C1c2ccccc2C(=O)N1CCCCn1c(=O)oc2ccccc21	-13.9%
Cc1nn2c(nc(N3CCOCC3)c3ccccc32)c1C=C(C#N)C#N	-42.6%
Cc1ccc(OCCN(C)C(=O)C2CCC(=O)N(CCCN3CCOCC3)C2)cc1 (stereo not drawn)	0.861%
O=C(Nc1nnc(-c2ccc(F)cc2)o1)c1ccco1	4.68%
COc1cccc(C=NCC(C)N=Cc2cccc(OC)c2O)c1O (stereo not drawn)	3.33%
Cc1ccc(-n2nnnc2/C=C\Nc2cc(C)on2)cc1	13.8%
Nc1nc(NC(=O)c2ccco2)nn1-c1ccccc1	2.02%
N/C(Cc1ccc(Cl)cc1Cl)=N\OC(=O)c1ccccc1	-8.71%
O=C(CSc1ccc(Br)c2cccc(Cl)c12)Nc1ccc(S(=O)(=O)Nc2nccs2)cc1	27.1%
CCc1ccc2c(c1)cc(CN(C(=S)Nc1ccccc1)C1CC1)c1nnnn12	-33.7%

SMILES	hERG current change (%, negative = inhibition) at 10uM
CCCCCn1c(CN2CCN(C(=O)OCC)CC2)nc2c1c(=O)[nH]c(=O)n2C	-69.8%
O=c1ccn(-c2ccccc2)[nH]1	5.84%
O=C(O)c1coc2ccccc12	14.9%
Oc1cccc(C(Nc2nccs2)c2ccc3cccnc3c2O)c1 (stereo not drawn)	-13.3%
CN(C)CCCNC(=O)/C(=C/c1ccc(-c2ccc([N+](=O)[O-])cc2)o1)NC(=O)c1ccccc1	-73.6%
CCN(CC)CCNC(=O)Cn1c(C)cc2ccccc2c1=O	1.83%
Cn1c(CNc2ccc(Cl)cc2)nc2ccccc21	-15.7%
Cc1cc(C)cc(N(C(C)C(=O)N2CCCCC2)S(C)(=O)=O)c1 (stereo not drawn)	4.06%
CCOc1ccc(C2=NNC(c3cccs3)=Nc3ccc(OC)cc32)cc1OCC	-6.48%
O=C(CC1SC(N2CCCCC2)=NC1=O)Nc1ccc(C(=O)Nc2ccccc2)cc1 (stereo not drawn)	-22.2%
CC(=O)Nc1ccc(NC(=O)CN(c2cc(Cl)ccc2Cl)S(C)(=O)=O)cc1	1.9%
Cc1ccc(C)c2[nH]c(=O)c(C(c3nnnn3Cc3ccco3)N3CCc4ccccc4C3)cc12 (stereo not drawn)	-2.35%
COc1ccc(OCC(=O)NS(=O)(=O)c2ccccc2)cc1	15.3%
O=C(NCc1ccc(Cl)cc1)N1CCN(Cc2ccccc2)CC1	-29.9%
CC(C)(C)NS(=O)(=O)c1ccc2nc(NC(=O)Cc3cccs3)sc2c1	-11%
Cc1ccc(Cn2ccsc2=NC(=O)COC(=O)c2ccc(O)cc2O)cc1	18.2%
O=C(NC1CCCCC1)C(=S)N1CCCC1	19.9%
CCOc1ccc(OCCC(=O)N(CC(=O)Nc2ccccc2C(F)(F)F)Cc2ccco2)cc1	-5.98%
Cc1cc(CNC(=O)C(C)n2cc([N+](=O)[O-])cn2)c2ccccc2n1 (stereo not drawn)	-4.91%
CC(=O)Nc1ccc(NC(=O)C(C)OC(=O)CSCc2cccc(Cl)c2)cc1 (stereo not drawn)	0.407%
Cc1ccc(S(=O)(=O)c2c(N)n(CCC(C)C)c3nc4ccccc4nc23)cc1	-6.38%
CCN(CC)CCNC(=O)c1ccc(NC(=O)C2CC(=O)N(CCc3ccc(OC)c(OC)c3)C2)cc1 (stereo not drawn)	14.9%

SMILES	hERG current change (%, negative = inhibition) at 10uM
C=CCNC(=O)C1CC2Cn3c(nc4cc5ccccc5cc43)C2N1C (stereo not drawn)	-16.2%
COc1cc(C2C(C(=O)C(C)(C)C)=C(O)C(=O)N2Cc2ccccc2)ccc1O (stereo not drawn)	-1.33%
CC(C)N(C(=O)CSc1nnc(NC2CC2)s1)c1ccccc1	-13.1%
COc1ccc(/C=N/NC(=O)CC(=O)NCc2cccnc2)cc1[N+](=O)[O-]	16%
CCOC(=O)N1CCN(C(=O)c2nn(C)c3c2CSc2ccccc2-3)CC1	-43.2%
CC(C)(C)Nc1nc(Cl)nc(N(C#N)CN2C(=O)c3ccccc3S2(=O)=O)n1	22.9%
CC1CCN(C(=O)COc2ccc(Nc3ccccc3)cc2)CC1	2.41%
CN1C(=O)CSc2ccc(NC(=O)N3CCc4ccccc43)cc21	-2.28%
CCOc1cc(C2C3=C(CCCC3=O)Nc3nc(C(=O)OC)nn32)ccc1OC (stereo not drawn)	20.3%
CCCNC(=O)c1ccc2c(=O)c(O)c(-c3ccc(F)cc3)[nH]c2c1	-10.3%
COc1ccc(N(C(=O)CNC(=O)c2cccs2)C(C(=O)NCC2CCCO2)c2ccccc2)c(OC)c1 (stereo not drawn)	12.5%
COc1ccc(CCn2c(-c3ccccc3)nc3c(c(=O)c4ccccc4n3C)c2=O)cc1	11.3%
O=C1C(c2ccnc3ccccc23)=C(O)c2ccccc21	-4.78%
Cc1ccc(Cl)c(OCC(=O)N2CCc3ccccc3C2)c1	4.64%
Cc1ccc(C(C)C)c(OCc2nnc3n2CCCCC3)c1	-29.3%
CCNc1nc(N)nc(Oc2ccc(OCCOc3ccc(Cl)cc3Cl)nn2)n1	-25.5%
O=C(NC(Cc1cnc[nH]1)C(=O)O)c1ccccc1 (stereo not drawn)	6.1%
CCOc1ccc(N(C(=O)CNC(=O)c2ccco2)C(C(=O)NC2CCCC2)c2cccnc2)cc1 (stereo not drawn)	13.4%
Cc1cc(C)cc(NC(=O)c2ccc(CN3CCc4ccccc4C3)cc2)c1	-15.3%
O=c1c2ccccc2c(-c2ccc(Br)cc2)nn1Cc1ccccc1	5.58%
N#Cc1cccc(Oc2ccc(-c3cnc4ccccc4n3)cc2)c1C#N	2.61%
N#C/C(=C/c1ccc(N2CCCCC2)o1)C(=O)NCCc1c[nH]c2ccccc12	0.553%

SMILES	hERG current change (%, negative = inhibition) at 10uM
CCOc1ccc(C(=O)N(c2ccccn2)C2CCCCC2)cc1	10.5%
CCOc1ccc(N(CC(=O)Nc2cccnc2)S(=O)(=O)c2ccc(C)cc2)cc1	-5.5%
CCOc1ccccc1-c1cc(C(=O)N/N=C/c2cccnc2)c2ccccc2n1	-6.35%
Cc1sc2nc(CN3CCCCC3)nc(N3CCN(C(=O)c4ccco4)CC3)c2c1C	-75%
CSc1ncc(CNc2cc([N+](=O)[O-])ccc2C)c(N)n1	-24.2%
CCOc1ccc(C2CC(c3ccccc3C)n3nc(N)nc3N2)cc1 (stereo not drawn)	8.79%
CCc1ccc(N2CC(C(=O)Nc3cccnc3)CC2=O)cc1 (stereo not drawn)	-6.3%
CCOC(=O)C1=C(C)NC2(O)c3ccccc3C(=O)C12O (stereo not drawn)	-2.65%
O=C(O)c1ccc2nc(-c3ccccc3)c(-c3ccccc3)nc2c1	8.03%
Cc1ccc(/C(O)=C/c2nc3ccccc3oc2=O)cc1	5.9%
CCOC(=O)C1CCN(C(=O)c2ccc(NC(=O)C3CCCO3)cc2)CC1 (stereo not drawn)	-9.35%
CC(C)(C)C(=O)Nc1ccc(-c2cn3cccnc3n2)cc1	-5.74%
Cc1cc(C)cc(NC2=NC3(CCCCC3)N=C(N)N2)c1	2.04%
COc1cc2c(cc1OC)N1C(=O)CC(OCC(=O)O)C3C4CC5(CCN5C(=O)C4=O)C2C31 (stereo not drawn)	29%
O=C(Nc1ccc(CN2CCOCC2)cc1)c1cccc(F)c1	-5.24%
S=c1nc(NCc2ccc3c(c2)OCO3)c2ccccc2[nH]1	15.4%
Cc1ccc(CNC(=O)C2CCN(C(=O)c3cccc(Cl)c3)CC2)cc1	-8.78%
Cc1ncc([N+](=O)[O-])n1CC(=O)Nc1cc(Cl)ccc1Cl	17.3%
Cc1occc1C(=O)NC1CCCN(Cc2ccc(Cl)cc2)C1 (stereo not drawn)	-38.4%
CS(=O)(=O)N(CC(=O)Nc1ccc(S(=O)(=O)N2CCCC2)cc1)c1cccc(F)c1	-9.92%
O=C(O)c1cc(-c2cccs2)nc2ccc(Br)cc12	21%
